Laboratory results taken from ChEMBL document CHEMBL4346670, “Discovery of Novel Janus Kinase (JAK) and Histone Deacetylase (HDAC) Dual Inhibitors for the Treatment of Hematological Malignancies” (J Med Chem, 2019).

How the values were obtained:
[1] = target: T1, Non-receptor tyrosine-protein kinase TYK2 (Homo sapiens, UniProt P29597); assay: Inhibition of recombinant human TYK2 at 200 nM using Ulight-CAGAGAIETDKEYYTVKD as substrate measured after 60 mins by LANCE method relative to control
[2] = target: Receptor-type tyrosine-protein kinase FLT3 (Homo sapiens) (UniProt P36888); assay: Inhibition of recombinant human FLT3 at 20 nM using Ulight-TK peptide as substrate measured after 60 mins by LANCE assay relative to control
Sequence of UniProt P36888 (P36888 whole entry): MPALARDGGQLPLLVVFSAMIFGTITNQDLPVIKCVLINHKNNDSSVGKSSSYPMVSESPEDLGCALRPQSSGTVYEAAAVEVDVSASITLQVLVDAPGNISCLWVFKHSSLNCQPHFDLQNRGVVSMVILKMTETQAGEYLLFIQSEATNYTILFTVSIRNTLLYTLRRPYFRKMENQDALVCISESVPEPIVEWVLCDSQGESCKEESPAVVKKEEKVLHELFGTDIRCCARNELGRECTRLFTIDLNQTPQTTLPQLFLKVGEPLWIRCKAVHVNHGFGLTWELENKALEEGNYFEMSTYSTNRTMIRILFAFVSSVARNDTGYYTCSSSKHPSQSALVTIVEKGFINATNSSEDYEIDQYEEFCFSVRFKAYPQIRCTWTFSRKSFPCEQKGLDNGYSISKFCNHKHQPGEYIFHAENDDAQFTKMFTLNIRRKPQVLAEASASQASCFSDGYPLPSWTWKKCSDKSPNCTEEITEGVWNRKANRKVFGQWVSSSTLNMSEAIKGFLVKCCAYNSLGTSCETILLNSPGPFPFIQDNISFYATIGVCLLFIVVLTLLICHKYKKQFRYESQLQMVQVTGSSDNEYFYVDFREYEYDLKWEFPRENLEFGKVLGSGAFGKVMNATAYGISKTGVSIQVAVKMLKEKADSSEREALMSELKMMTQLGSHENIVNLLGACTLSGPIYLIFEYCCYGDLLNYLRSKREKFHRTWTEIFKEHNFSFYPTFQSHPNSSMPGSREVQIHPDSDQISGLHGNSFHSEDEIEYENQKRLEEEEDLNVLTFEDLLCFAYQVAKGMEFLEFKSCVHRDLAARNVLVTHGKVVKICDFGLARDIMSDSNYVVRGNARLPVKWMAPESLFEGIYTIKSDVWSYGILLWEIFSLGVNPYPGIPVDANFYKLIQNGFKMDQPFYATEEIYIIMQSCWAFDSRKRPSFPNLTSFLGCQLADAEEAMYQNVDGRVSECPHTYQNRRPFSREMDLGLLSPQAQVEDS
Method in brief: (§1)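 Single-concentration screen within an 85-kinase panel run by a contract lab, with each compound tested at 20 nM and 200 nM. Human recombinant enzymes were used. Activity was quantified as phosphorylation of a peptide substrate read by LANCE time-resolved detection, and inhibition was expressed relative to control, using the same format as the JAK assay.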

[3] = Half life in rat liver microsomes at 1 uM in presence of UDPGA cofactor for phase 2 metabolism and measured upto 60 mins by LC-MS/MS analysis; assay type: ADME, Microsome
Method in brief: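 Liver microsomes (rat or human) incubated with compound at 37 °C, with NADPH for phase I or UDPGA for phase II. Reactions stopped in acetonitrile at set time points, vortexed 5 min, stored at -80 °C. Parent remaining in supernatant measured by LC-MS/MS. t1/2 = -0.693/k, with k the slope of ln fraction remaining versus time.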

[4] = target: 3-phosphoinositide-dependent protein kinase 1 (Homo sapiens) (UniProt O15530); assay: Inhibition of recombinant human PDK1 at 200 nM using Ulight-FLGFTYVAP as substrate measured after 90 mins by LANCE method relative to control
[5] = Toxicity in BALB/c nu mouse xenografted with HEL cells assessed as change in body weight at 100 mg/kg/day, ip administered for 16 days and measured every day during compound dosing; assay type: organism-based; settings: in vivo, 384 h
[6] = target: Tyrosine-protein kinase receptor UFO (Homo sapiens) (UniProt P30530); assay: Inhibition of recombinant human AXL at 200 nM using Ulight-TK peptide as substrate measured after 180 mins by LANCE assay relative to control
Method in brief: (§2)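 Human recombinant kinases tested at 20 nM and 200 nM compound in an outsourced panel of 85 kinases. Activity measured as phosphorylation of a ULight-labelled substrate by LANCE detection, expressed as inhibition relative to control.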

K562 [7] = assay: Induction of apoptosis in human K562 cells assessed as early apoptotic cells at 0.5 uM after 24 hrs by Annexin-V/propidium iodide staining-based flow cytometric analysis (reference value: 7.55%); assay type: functional
[8] = target: Receptor-type tyrosine-protein kinase FLT3 (Homo sapiens) (UniProt P36888); assay: Inhibition of recombinant human FLT3 at 200 nM using Ulight-TK peptide as substrate measured after 60 mins by LANCE assay relative to control; method in brief: as §1
HEL = assay: Induction of apoptosis in HEL cells assessed as necrotic apoptotic cells at 0.5 uM after 24 hrs by Annexin-V/propidium iodide staining-based flow cytometric analysis (reference value: 0.011%); assay type: functional, Homo sapiens
[9] = target: Macrophage colony-stimulating factor 1 receptor (Homo sapiens) (UniProt P07333); assay: Inhibition of recombinant human CSFR at 200 nM using Ulight-TK peptide as substrate measured after 15 mins by LANCE method relative to control; method in brief: as §1
[10] = target: Calcium/calmodulin-dependent protein kinase type 1 (Homo sapiens) (UniProt Q14012); assay: Inhibition of recombinant human CAMK1alpha at 200 nM using CREBtide as substrate measured after 30 mins by LANCE assay relative to control; method in brief: as §1
Sequence of UniProt Q14012 (Q14012 whole entry, looked up): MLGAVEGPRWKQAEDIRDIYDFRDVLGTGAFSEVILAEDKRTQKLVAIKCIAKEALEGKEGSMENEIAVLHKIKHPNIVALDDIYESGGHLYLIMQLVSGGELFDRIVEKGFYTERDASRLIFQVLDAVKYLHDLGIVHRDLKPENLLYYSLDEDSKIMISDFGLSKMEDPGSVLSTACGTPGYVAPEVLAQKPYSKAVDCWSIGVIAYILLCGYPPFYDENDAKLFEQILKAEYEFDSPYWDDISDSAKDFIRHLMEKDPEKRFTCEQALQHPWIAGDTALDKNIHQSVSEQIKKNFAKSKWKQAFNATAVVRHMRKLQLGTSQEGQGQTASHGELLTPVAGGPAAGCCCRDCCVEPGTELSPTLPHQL

[11] = target: Focal adhesion kinase 1 (Homo sapiens) (UniProt Q05397); assay: Inhibition of recombinant human FAK1 at 20 nM using Ulight-TK peptide as substrate measured after 60 mins by LANCE method relative to control; method in brief: as §1
Sequence of UniProt Q05397 (Q05397 whole entry, looked up): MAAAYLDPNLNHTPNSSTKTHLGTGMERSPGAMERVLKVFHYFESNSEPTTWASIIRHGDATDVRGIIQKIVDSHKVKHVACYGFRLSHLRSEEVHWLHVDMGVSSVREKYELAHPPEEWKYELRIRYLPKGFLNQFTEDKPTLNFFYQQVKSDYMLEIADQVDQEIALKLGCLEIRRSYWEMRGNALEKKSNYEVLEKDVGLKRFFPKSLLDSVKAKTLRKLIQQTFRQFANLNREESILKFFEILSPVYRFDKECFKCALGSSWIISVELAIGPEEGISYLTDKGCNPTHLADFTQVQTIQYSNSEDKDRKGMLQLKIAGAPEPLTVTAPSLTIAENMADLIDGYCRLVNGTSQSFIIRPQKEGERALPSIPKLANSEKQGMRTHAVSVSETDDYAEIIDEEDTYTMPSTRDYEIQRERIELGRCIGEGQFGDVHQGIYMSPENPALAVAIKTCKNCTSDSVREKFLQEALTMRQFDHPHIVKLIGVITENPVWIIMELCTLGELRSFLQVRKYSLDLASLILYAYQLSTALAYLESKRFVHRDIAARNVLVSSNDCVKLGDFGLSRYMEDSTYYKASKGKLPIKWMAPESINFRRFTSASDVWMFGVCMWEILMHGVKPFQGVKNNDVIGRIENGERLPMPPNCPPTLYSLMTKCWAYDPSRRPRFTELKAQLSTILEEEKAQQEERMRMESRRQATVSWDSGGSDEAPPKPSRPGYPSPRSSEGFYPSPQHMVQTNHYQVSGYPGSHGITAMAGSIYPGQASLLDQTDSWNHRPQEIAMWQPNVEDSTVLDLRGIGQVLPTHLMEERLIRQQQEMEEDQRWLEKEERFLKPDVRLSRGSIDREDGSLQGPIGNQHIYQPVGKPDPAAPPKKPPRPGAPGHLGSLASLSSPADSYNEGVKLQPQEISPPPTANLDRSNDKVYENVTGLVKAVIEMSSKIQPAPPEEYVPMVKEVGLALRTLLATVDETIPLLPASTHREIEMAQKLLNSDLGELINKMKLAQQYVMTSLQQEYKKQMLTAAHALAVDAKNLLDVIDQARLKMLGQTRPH

[12] = target: Mitogen-activated protein kinase kinase kinase 9 (Homo sapiens) (UniProt P80192); assay: Inhibition of recombinant human MLK1 at 200 nM using Ulight-FLGFTYVAP as substrate measured after 60 mins by LANCE method relative to control
Method in brief: (§3)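 Part of an 85-kinase selectivity panel run by a contract lab, with the test compound at 20 nM and at 200 nM. Each human recombinant kinase's phosphorylation of its peptide substrate was measured following the JAK assay method. Activity is given as percent inhibition.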

[13] = target: Activin receptor type-1B (Homo sapiens) (UniProt P36896); assay: Inhibition of recombinant human ALK4 at 200 nM using Ulight-DNA topoisomerase 2alpha as substrate measured after 30 mins by LANCE assay relative to control; method in brief: as §2
Sequence of UniProt P36896 (P36896 whole entry): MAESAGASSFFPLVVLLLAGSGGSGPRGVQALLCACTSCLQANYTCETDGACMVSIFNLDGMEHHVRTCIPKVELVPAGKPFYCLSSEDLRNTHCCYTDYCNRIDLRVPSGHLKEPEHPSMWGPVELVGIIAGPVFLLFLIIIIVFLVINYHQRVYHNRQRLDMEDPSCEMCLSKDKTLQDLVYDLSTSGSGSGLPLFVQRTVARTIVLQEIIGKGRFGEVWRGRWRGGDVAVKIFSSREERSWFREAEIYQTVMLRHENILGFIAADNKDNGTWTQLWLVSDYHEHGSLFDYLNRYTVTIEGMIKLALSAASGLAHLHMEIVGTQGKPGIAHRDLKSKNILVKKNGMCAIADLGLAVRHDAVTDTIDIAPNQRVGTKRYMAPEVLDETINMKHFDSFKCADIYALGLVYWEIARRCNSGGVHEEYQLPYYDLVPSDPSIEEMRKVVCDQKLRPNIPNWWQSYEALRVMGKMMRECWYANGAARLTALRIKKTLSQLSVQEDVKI

[14] = target: Protein-tyrosine kinase 2-beta (Homo sapiens) (UniProt Q14289); assay: Inhibition of recombinant human PYK2 at 20 nM using Ulight-TK peptide as substrate measured after 15 mins by LANCE method relative to control
[15] = target: Homeodomain-interacting protein kinase 2 (Homo sapiens) (UniProt Q9H2X6); assay: Inhibition of recombinant human HIPK2 at 200 nM using Ulight-CFFKNIVTPRTPPPSQGK-amide as substrate measured after 30 mins by LANCE method relative to control; method in brief: as §3
[16] = target: Phosphorylase b kinase gamma catalytic chain, liver/testis isoform (Homo sapiens) (UniProt P15735); assay: Inhibition of recombinant human PHKG2 at 20 nM using CREBtide as substrate measured after 30 mins by LANCE method relative to control
Sequence of UniProt P15735 (P15735 whole entry): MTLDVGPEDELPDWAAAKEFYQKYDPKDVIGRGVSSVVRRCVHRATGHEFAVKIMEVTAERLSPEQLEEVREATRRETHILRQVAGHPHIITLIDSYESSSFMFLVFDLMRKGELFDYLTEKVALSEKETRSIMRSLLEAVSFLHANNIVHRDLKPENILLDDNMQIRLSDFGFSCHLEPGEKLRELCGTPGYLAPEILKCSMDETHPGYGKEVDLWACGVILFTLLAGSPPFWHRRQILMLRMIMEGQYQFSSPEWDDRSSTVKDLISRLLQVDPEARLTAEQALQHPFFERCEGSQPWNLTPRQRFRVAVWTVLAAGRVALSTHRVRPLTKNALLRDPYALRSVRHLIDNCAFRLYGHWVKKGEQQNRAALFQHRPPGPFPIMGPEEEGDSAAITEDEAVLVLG

[17] = target: Serine/threonine-protein kinase Chk1 (Homo sapiens) (UniProt O14757); assay: Inhibition of recombinant human CHK1 at 20 nM using CREBtide as substrate measured after 30 mins by LANCE assay relative to control; method in brief: as §1
Sequence of UniProt O14757 (O14757 whole entry): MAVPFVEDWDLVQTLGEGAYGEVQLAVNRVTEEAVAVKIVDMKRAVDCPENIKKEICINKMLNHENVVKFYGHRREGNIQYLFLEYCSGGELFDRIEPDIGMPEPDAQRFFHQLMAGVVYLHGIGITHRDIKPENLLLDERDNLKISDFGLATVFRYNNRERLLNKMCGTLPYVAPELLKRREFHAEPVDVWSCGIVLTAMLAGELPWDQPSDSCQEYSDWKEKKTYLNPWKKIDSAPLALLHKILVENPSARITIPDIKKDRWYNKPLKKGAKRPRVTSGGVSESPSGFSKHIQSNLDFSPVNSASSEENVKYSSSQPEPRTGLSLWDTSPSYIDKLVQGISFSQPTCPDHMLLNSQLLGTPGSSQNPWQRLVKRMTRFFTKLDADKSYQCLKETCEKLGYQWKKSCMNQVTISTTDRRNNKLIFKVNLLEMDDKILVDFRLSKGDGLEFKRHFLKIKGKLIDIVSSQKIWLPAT

[18] = target: T1, Non-receptor tyrosine-protein kinase TYK2; assay: Inhibition of recombinant human TYK2 at 20 nM using Ulight-CAGAGAIETDKEYYTVKD as substrate measured after 60 mins by LANCE method relative to control
[19] = target: Activin receptor type-1B (Homo sapiens) (UniProt P36896); assay: Inhibition of recombinant human ALK4 at 20 nM using Ulight-DNA topoisomerase 2alpha as substrate measured after 30 mins by LANCE assay relative to control; method in brief: as §2
[20] = target: Focal adhesion kinase 1 (Homo sapiens) (UniProt Q05397); assay: Inhibition of recombinant human FAK1 at 200 nM using Ulight-TK peptide as substrate measured after 60 mins by LANCE method relative to control
Method in brief: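 Part of an 85-kinase selectivity panel run by a contract lab. The test compound was screened at 20 nM and 200 nM against human recombinant kinases. Activity was quantified as phosphorylation of a ULight-labelled peptide substrate, read by LANCE detection. Percent inhibition was taken relative to control. The method is the same one used for JAKs.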

[21] = target: ALK tyrosine kinase receptor (Homo sapiens) (UniProt Q9UM73); assay: Inhibition of recombinant human ALK at 200 nM using Ulight-CKKSRGDYMTMQIG as substrate measured after 60 mins by LANCE assay relative to control; method in brief: as §2
K562 [22] = assay: Induction of apoptosis in human K562 cells assessed as viable cells at 0.5 uM after 24 hrs by Annexin-V/propidium iodide staining-based flow cytometric analysis (reference value: 85.7%); assay type: functional; settings: K562, 24 h, read-out: Activity
[23] = target: Tyrosine-protein kinase Lyn (Homo sapiens) (UniProt P07948); assay: Inhibition of recombinant human LYN A at 20 nM using biotinyl-beta amyloid-beta amyloid-beta AKVEKIGEGTYGVVYK after 120 mins by HTRF method relative to control

T1 sequence (P29597 whole entry): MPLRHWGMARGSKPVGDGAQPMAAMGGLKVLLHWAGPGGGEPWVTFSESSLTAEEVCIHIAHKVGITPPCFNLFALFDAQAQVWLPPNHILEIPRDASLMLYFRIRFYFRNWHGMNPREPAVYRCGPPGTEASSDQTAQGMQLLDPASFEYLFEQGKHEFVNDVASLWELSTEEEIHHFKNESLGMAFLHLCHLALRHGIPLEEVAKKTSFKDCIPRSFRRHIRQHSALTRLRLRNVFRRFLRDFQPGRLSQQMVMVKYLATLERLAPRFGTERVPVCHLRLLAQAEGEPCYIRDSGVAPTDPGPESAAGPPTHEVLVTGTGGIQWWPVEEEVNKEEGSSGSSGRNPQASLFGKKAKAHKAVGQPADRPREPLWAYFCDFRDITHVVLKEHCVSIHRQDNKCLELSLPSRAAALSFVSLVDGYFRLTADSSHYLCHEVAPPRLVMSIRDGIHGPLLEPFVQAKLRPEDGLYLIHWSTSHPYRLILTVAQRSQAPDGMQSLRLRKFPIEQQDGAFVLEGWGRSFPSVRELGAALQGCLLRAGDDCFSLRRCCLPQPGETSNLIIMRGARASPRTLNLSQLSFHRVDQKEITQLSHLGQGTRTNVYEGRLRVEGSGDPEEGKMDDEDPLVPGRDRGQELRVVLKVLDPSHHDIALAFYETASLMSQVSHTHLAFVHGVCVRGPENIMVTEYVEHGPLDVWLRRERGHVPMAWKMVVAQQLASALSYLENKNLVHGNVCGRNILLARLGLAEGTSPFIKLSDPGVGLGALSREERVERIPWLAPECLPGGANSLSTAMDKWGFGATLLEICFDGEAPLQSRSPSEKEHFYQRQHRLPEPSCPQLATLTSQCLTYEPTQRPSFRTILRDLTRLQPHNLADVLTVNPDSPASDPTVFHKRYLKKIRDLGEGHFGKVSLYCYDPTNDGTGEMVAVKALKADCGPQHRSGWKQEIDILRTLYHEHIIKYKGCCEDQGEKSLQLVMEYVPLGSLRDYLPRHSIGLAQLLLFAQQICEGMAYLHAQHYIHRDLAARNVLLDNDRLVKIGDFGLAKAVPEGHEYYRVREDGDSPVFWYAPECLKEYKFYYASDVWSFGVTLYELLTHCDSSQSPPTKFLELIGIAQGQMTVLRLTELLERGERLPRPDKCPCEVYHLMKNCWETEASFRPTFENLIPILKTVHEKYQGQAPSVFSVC

In the case of `O=C(CCCCCn1cc(Nc2ncc(Cl)c(Nc3ccc(Cl)cc3)n2)cn1)NO`, the inhibition [1] is reported as 68%, the inhibition [2] is reported as 60% and the half-life at 1 µM [3] is reported as 41.6 min. The inhibition [4] was 15%, the Activity [5] was “Non-Toxic” and the inhibition [6] was 32%. For the same molecule, the Activity (K562 [7]) was 36.9%, the inhibition [8] was 95% and the Activity (HEL) was 3.62%. It also gave an inhibition [9] of 37%, an inhibition [10] of 8% and an inhibition [11] of 7%. The inhibition [12] was 89%, the inhibition [13] was 27% and the inhibition [14] was 1%. The inhibition [15] was 48%, the inhibition [16] was 10% and the inhibition [17] was 12%. It also gave an inhibition [18] of 4%, an inhibition [19] of 6% and an inhibition [20] of 38%. For the same molecule, the inhibition [21] was 35%, the viability at 0.5 µM (K562 [22]) was 28.2% and the inhibition [23] was 10%.
